# Measurements reported in the supplement of paper PMC3724861.
# The other results are listed elsewhere or left out.
# Test system: T1, Caupolican (Caup) homeodomain DNA-binding domain
# T1 sequence: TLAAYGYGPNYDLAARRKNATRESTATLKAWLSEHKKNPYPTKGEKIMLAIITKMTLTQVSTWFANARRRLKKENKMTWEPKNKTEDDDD
# Test: PBM E-score (8-mer, recovered from the published 9-mer minima) (E-score (dimensionless, -0.5 to 0.5)); Drosophila protein; higher = stronger relative binding preference, active = 0.31 or more
# Protocol: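 Protein binding microarray (PBM): in vitro transcribed/translated Caupolican (Caup) homeodomain DNA-binding domain (residues 214-303) applied at 100 nM to a universal 8-mer PBM array (Agilent AMADID 015681). The 8-mer enrichment score (E-score, range -0.5 to 0.5) was computed, and each 9-mer score is the minimum E-score of its two constituent 8-mers. The E-score is the same for a 9-mer and its reverse complement; 0.31 is the stated binding threshold.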
row,Sequence,PBM E-score
1,ATCTGGGG,inactive: -0.182
2,TAGTATAA,inactive: 0.167
3,AAAGCCCT,inactive: -0.0941
4,GCGTCCCA,inactive: -0.2
5,CGTAAGAC,inactive: -0.0308
6,GTGTACCA,inactive: 0.308
7,CCAGGACC,inactive: -0.169
8,CTCGCGTA,inactive: -0.0439
9,GATGTGGC,inactive: -0.0679
10,GAGCGGAC,inactive: -0.217
11,TATATCGA,inactive: 0.0973
12,ATTCACTA,inactive: 0.0725
13,TGCACCCA,inactive: -0.046
14,CAACGTGG,inactive: -0.0105
15,CCAACCCC,inactive: -0.162
16,ACCATTAC,inactive: 0.108
17,AGGTAGAC,inactive: 0.0513
18,ATAGGGTC,inactive: -0.00095
19,GACTTCTC,inactive: -0.0701
20,CATTGTCA,inactive: 0.207
21,CGAAAGCA,inactive: 0.0429
22,ACTGAGCC,inactive: -0.118
23,GATAGCAA,inactive: 0.121
24,AGGACAAT,inactive: 0.0918
25,ACACAGAG,inactive: 0.129

row,Sequence,PBM E-score
1,CCGTTATA,inactive: 0.016
2,AAAAACGG,inactive: -0.0275
3,CCAATTAA,inactive: 0.121
4,AGTGTTAA,inactive: 0.165
5,ACTAACAG,inactive: 0.174
6,AACTCCGA,inactive: -0.058
7,GAGTCAGA,inactive: -0.0516
8,CTGTAGAA,inactive: 0.13
9,AGAGGAAA,inactive: -0.0315
10,AATCTCTG,inactive: 0.0615
11,CCGGCTGC,inactive: -0.162
12,CAATAAAA,inactive: 0.142
13,AAAAGGCC,inactive: -0.193
14,AGAGAGAA,inactive: -0.0245
15,CTGATGGA,inactive: -0.0825
16,ACGCCTTG,inactive: -0.0368
17,AGTCTGAA,inactive: 0.0498
18,ACTCAGAC,inactive: 0.029
19,AGTACGGA,inactive: -0.0156
20,ACAGCCCG,inactive: -0.16
21,AAAACAGT,inactive: 0.11
22,ATAGTCTC,inactive: 0.074
23,AAAGCTTT,inactive: 0.0082
24,CGGGGTAG,inactive: -0.138
25,AATTATTC,inactive: 0.16

row,Sequence,PBM E-score
1,GCAGATTA,inactive: 0.0156
2,CAGTGCCG,inactive: -0.179
3,AAATCGCA,inactive: -0.0788
4,AGAAATTC,inactive: -0.0621
5,ACCACCAC,inactive: 0.0458
6,AGCTAAGG,inactive: -0.086
7,CGGTTTCA,inactive: 0.0244
8,CGCTGCCC,inactive: -0.255
9,CCTTGTGA,inactive: 0.0778
10,CACAACGA,inactive: 0.0624
11,CAAGGTGG,inactive: -0.0224
12,CACGTATC,inactive: 0.152
13,CAGGGTCA,inactive: -0.122
14,ATGGAGGA,inactive: -0.0214
15,GAGGCCTA,inactive: -0.236
16,CTGAGCGA,inactive: -0.0733
17,AGGGCGCA,inactive: -0.236
18,GGTAAAAC,inactive: 0.108
19,ACAATCCG,inactive: 0.117
20,CTAGCAAG,inactive: 0.0447
21,GGAGAACA,inactive: 0.13
22,CAAACCTG,inactive: 0.0411
23,AAATCCAA,inactive: 0.0536
24,ATAACTGG,inactive: -0.0609
25,GAAGGAGA,inactive: 0.00976

row,Sequence,PBM E-score
1,CAGAGAGA,inactive: -0.014
2,TAACGACA,inactive: 0.296
3,GTAGCTCA,inactive: -0.0292
4,GCCTATCC,inactive: -0.118
5,CCCTAGAG,inactive: -0.129
6,ATCAAAGA,inactive: 0.028
7,GATTCGGC,inactive: -0.0366
8,ATATTAGG,inactive: 0.176
9,AGCATGTC,active: 0.376
10,GGATAACA,inactive: 0.238
11,ACGTTCAA,≥ 0.0706
12,ATTGCAAT,inactive: 0.05
13,ATCGACAA,inactive: 0.206
14,AGTACCCC,inactive: -0.117
15,AGGATGGA,inactive: -0.124
16,CAGTTGTC,inactive: 0.224
17,GGACTGCA,inactive: -0.083
18,GTATCAGA,inactive: 0.118
19,CTTCGAAC,inactive: -0.0385
20,GCCACTCA,inactive: -0.0797
21,GACTCACC,inactive: -0.18
22,TATAGGAA,inactive: 0.109
23,ACATCAGC,inactive: 0.105
24,CGGACCCC,inactive: -0.286
25,GACTAGAA,inactive: 0.0801

row,Sequence,PBM E-score
1,CTTGGGTA,inactive: -0.0204
2,ATCGGCGG,inactive: -0.207
3,ATCCCATC,inactive: -0.00982
4,AAACTAAT,inactive: 0.185
5,ATCTTCGG,inactive: 0.00377
6,GTTACAAC,inactive: 0.303
7,ACGTGCCT,inactive: -0.0447
8,ATTTGGGA,inactive: -0.0177
9,AATCGAAC,inactive: 0.134
10,ATGTCAAT,active: 0.359
11,GAGTGGTA,inactive: 0.018
12,GTCCCCAC,inactive: -0.132
13,AGCCTGCG,inactive: -0.158
14,ACGGGTCA,inactive: -0.115
15,ATGGAAAA,inactive: 0.127
16,ATTTGTGA,inactive: 0.074
17,AAATTGAT,inactive: 0.0364
18,TCCTGCCA,inactive: -0.0781
19,GAGCTAAA,inactive: -0.00706
20,CCTGATCG,inactive: -0.00823
21,GAAAAGGA,inactive: 0.0322
22,ATAGCCAG,inactive: -0.0483
23,AACATCCA,≥ 0.295
24,ATCAATGC,inactive: 0.0455
25,GGACAAAC,inactive: 0.143

row,Sequence,PBM E-score
1,ACATCAAC,inactive: 0.235
2,AAACCCAG,inactive: -0.00288
3,CCACCAAG,inactive: -0.178
4,GACCAAGC,inactive: -0.122
5,AATAACAC,inactive: 0.284
6,GAAGTTAA,inactive: 0.0374
7,CAAACCAC,inactive: -0.0305
8,ACATCAAT,active: 0.316
9,AGGCTGAG,inactive: -0.105
10,CCAAAGTA,inactive: 0.0808
11,CCGGGAGC,inactive: -0.282
12,CGCTGTGC,inactive: -0.176
13,CAACATCC,inactive: 0.238
14,CGACAAGC,inactive: 0.224
15,ATGATCTG,inactive: 0.118
16,AGGGACCT,inactive: -0.105
17,ACAACTGC,inactive: 0.167
18,AAATACAT,active: 0.338
19,TAAACATA,active: ≥ 0.367
20,CCGGTCGA,inactive: -0.211
21,AAACATAA,active: 0.321
22,ATAGGGAG,inactive: -0.179
23,ATAATCCA,≥ 0.177
24,GGGTACGA,inactive: -0.031
25,ATCTACAT,inactive: 0.29

row,Sequence,PBM E-score
1,ATATCCAG,inactive: 0.0929
2,CCCACTTC,inactive: -0.132
3,AGGGCGTA,inactive: -0.103
4,ATCCTACG,inactive: -0.0683
5,CGTGCCGA,inactive: -0.102
6,TACAAGTA,active: ≥ 0.407
7,GCACCGGC,inactive: -0.171
8,ATTCACGA,inactive: 0.13
9,GCCGCCGA,inactive: -0.132
10,AGGGATAA,inactive: 0.0625
11,GACCCTGC,inactive: -0.23
12,CGGTAGGA,inactive: -0.0619
13,AGGCAAAG,inactive: -0.0384
14,AATGGAGA,inactive: -0.0659
15,ACTAGTCT,inactive: 0.159
16,ATTTGTTG,inactive: 0.253
17,CGTAAGTC,inactive: -0.0201
18,ACCATTCG,inactive: 0.0359
19,ATTGCAAA,inactive: 0.139
20,GGGAAAAC,inactive: -0.0348
21,GCCGGCCC,inactive: -0.278
22,GACTGTCC,inactive: -0.0666
23,CAAGCTTA,inactive: -0.0396
24,TATGACAA,active: 0.314
25,CAATCAGG,inactive: -0.0966

row,Sequence,PBM E-score
1,CGGTTAGC,inactive: -0.159
2,ATTAAGTA,inactive: 0.145
3,CGTTAATA,inactive: 0.0428
4,GGGACAAC,inactive: 0.178
5,GACTAAGC,inactive: -0.186
6,CAGCTACA,inactive: 0.24
7,GCCTTGCC,inactive: -0.232
8,CAATACGA,inactive: 0.122
9,ACGGTCTG,≥ 0.0373
10,GTGCCCAA,inactive: -0.0344
11,GAGTATAC,inactive: 0.199
12,CTTTAAAA,inactive: -0.00403
13,AATCTGAG,inactive: 0.0132
14,ATGGGCGC,inactive: -0.24
15,ACGGGTTG,inactive: -0.0634
16,GGTAAGCA,inactive: -0.0386
17,AGCACGCA,≥ -0.0483
18,AAACCCCT,inactive: -0.173
19,ACATGAGA,active: 0.344
20,ATTAGAAC,inactive: 0.112
21,TCTGTTAA,inactive: 0.173
22,TCAGGGCA,inactive: -0.0124
23,TGCATCCA,inactive: 0.0126
24,ACTACGCT,inactive: 0.0173
25,GCACACCC,inactive: -0.143

row,Sequence,PBM E-score
1,CCGAAGTC,inactive: -0.1
2,CTACGCCA,inactive: -0.123
3,CAACTTAG,inactive: 0.107
4,AAACGGAG,inactive: -0.155
5,GATTGTAA,inactive: 0.205
6,AAGCTATT,inactive: 0.0401
7,ACGACGAG,inactive: 0.0889
8,CTGTTATA,inactive: 0.187
9,CCTGCGTC,inactive: -0.102
10,CAACGGGC,inactive: -0.114
11,AAATTTAG,inactive: 0.0333
12,GCCAACGA,inactive: -0.111
13,AACAAACA,active: 0.338
14,CCGGAGCG,inactive: -0.225
15,GACGGTCC,inactive: -0.265
16,ACAAGTTG,inactive: 0.286
17,GATGTTCA,inactive: 0.303
18,AGAGATCT,inactive: -0.0272
19,AGGCACAA,inactive: -0.0205
20,GAACCGTC,inactive: -0.0799
21,ACGGGCTC,inactive: -0.222
22,GAGTTACC,inactive: -0.0268
23,ACGGTTCA,inactive: -0.106
24,CAGAGCTC,inactive: -0.22
